# Data reported in PubChem BioAssay AID1347044 (National Center for Advancing Translational Sciences (NCATS), 2019).
# This is one part of the list. Further columns of the screen follow, without active or inactive calls. Compounds called inactive in the main read-out are mostly missing here. Words in brackets tell the shape of the fitted curve; partial curves, single points and poor fits give uncertain potencies.
# Test: Natriuretic polypeptide receptor (hNpr1) antagonism - Confirmation; further: nearly all actives have a fitted effect of over 70% in size
# Conditions: HEK293 hNpr1 cGMP GloSensor luminescence, ANP-stimulated; measured here: HEK-hNpr1 cytotoxicity, CellTiter-Glo
# Outline: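 Compound (30 min, room temperature) preceded stimulation with hNppA peptide at 0.1 nM final for 20 min. Cells were HEK293 carrying hNpr1 plus GloSensor pGS-40F cGMP biosensor, pre-equilibrated 2 h with 2% substrate; cGMP was followed as luminescence pre- and post-agonist.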
# Tags describe the fitted curve by direction and shape.
row,Compound,CC50
1,COC(=O)N1CCCCC(NC(=O)CCCc2nc(-c3ccccc3C)no2)C1 (stereo unspecified),"21.7 µM [falling, partial curve]"
2,Cc1ccc(C(=O)N2CCC(n3cc(-c4nc(C5CC5)no4)nn3)C2)s1 (stereo unspecified),"21.7 µM [falling, partial curve]"
3,COc1ccc(C2(C(=O)N3CCC(Cc4nc(-c5ccccc5)no4)CC3)CC2)cc1,"12.2 µM [falling, partial curve]"
4,COc1ccc(CNC(=O)c2ccc3c(c2)N(C(=O)c2ccc(F)cc2)CC3)cc1OC,"6.11 µM [falling, partial curve]"
5,COC(=O)c1cccc(NC(=S)N[C@H]2CO[C@H]3[C@@H]2OC[C@H]3OC(=O)Nc2cccc(C(F)(F)F)c2)c1,"24.3 µM [falling, partial curve]"
6,COc1ccccc1C(=O)N1CC(Oc2ccc(-c3nc(-c4ccccc4)no3)cc2)C1,"24.3 µM [falling, partial curve]"
7,O=C(Nc1nccs1)[C@@H]1C[C@@H](c2ccc(F)cc2)N(CCOc2ccccc2)C1,"44.4 µM [falling, single point]"
8,CN(C)c1cccc(C(=O)N2CCN(C(=O)c3nnn4c3COC(c3ccc(Cl)cc3)C4)CC2)c1 (stereo unspecified),"21.7 µM [falling, partial curve]"
9,O=C(c1ccc2[nH]ccc2c1)N1CCC2(CC1)N=C(c1ccc(Br)cc1)NO2,"24.3 µM [falling, partial curve]"
10,CN1C[C@@H](NC(=O)c2ccc3c(c2)OCO3)C[C@H]1c1nc(-c2ccc(Cl)cc2)no1,"35.3 µM [falling, partial curve]"
11,Cn1ccc(NC(=O)c2ccc3c(c2)NC(C)(CCCCc2ccccc2)CO3)n1 (stereo unspecified),"31.4 µM [falling, partial curve]"
12,CN(Cc1cccnc1)c1ccc2ncc(Nc3cccc(C(F)(F)F)c3)n2n1,"25 µM [falling, partial curve]"
13,COc1ccc(CN2C[C@@H]3C(=O)N(Cc4ccc5c(c4)OCO5)C(=O)[C@@H]3C2)cc1OC,"21.7 µM [falling, partial curve]"
14,CCOc1ccc(C(=O)N2CCC3(CC2)N=C(c2ccc(Cl)cc2)NO3)cc1,"19.3 µM [falling, partial curve]"
15,COC(=O)c1ccc2nc(CO[C@H]3CN(Cc4ccc(Cl)cc4)C[C@H]3F)[nH]c2c1,"35.3 µM [falling, partial curve]"
16,Cc1cc(C(=O)N2CCC3(CC2)CC(N(Cc2ccc(F)cc2)C2CC2)CCO3)n(C)n1 (stereo unspecified),"21.7 µM [falling, partial curve]"
17,Cc1cnccc1CN(C)C(=O)c1cc(COc2ccc(-n3cncn3)cc2)on1,"17.2 µM [falling, partial curve]"
18,O=C(c1ccccc1)N1CCc2sc(C(=O)N3CCN(c4ccccc4)CC3)cc2C1,"24.3 µM [falling, partial curve]"
19,Cc1ncnc(N2CCC3(CC2)CC(=O)N(CCCc2ccccc2)C3)c1C,"6.11 µM [falling, full curve]"
20,O=C(c1cccc2[nH]ccc12)N1CCCC(n2cc(-c3nc(C4CC4)no3)nn2)C1 (stereo unspecified),"24.3 µM [falling, partial curve]"
21,COc1ccc2nc3n(c2c1)[C@@H](CNCc1ccc2c(c1)OCO2)COC3,"35.3 µM [falling, partial curve]"

row,Compound,CC50
1,CC(C)Cc1cn(CC2CCCN(C(=O)c3n[nH]c4c3CCCC4)C2)nn1 (stereo unspecified),"17.2 µM [falling, partial curve]"
2,O=C(COc1ccc(F)cc1)N1CCC(Oc2ccc(-c3noc(C4CC4)n3)cc2)C1 (stereo unspecified),"43.2 µM [falling, single point]"
3,CCc1noc(CC2CCOC3(CCN(S(=O)(=O)c4ccc(F)c(F)c4)CC3)C2)n1 (stereo unspecified),"27.3 µM [falling, single point]"
4,CCn1cc(-c2ccc(C)cc2)cc1C(=O)N1CCN(c2ccccn2)CC1,"24.3 µM [falling, partial curve]"
5,COc1ccc(C2Cn3nnc(C(=O)N4CCN(C(=O)c5sccc5C)CC4)c3CO2)cc1 (stereo unspecified),"21.7 µM [falling, partial curve]"
6,Cc1cc(Cl)ccc1-c1ccc(CNC2CN(C(=O)OC(C)(C)C)C2)cc1,"30.6 µM [falling, single point]"
7,CC(C)c1noc(CC2CCN(C(=O)c3ccc(F)cc3)CC2)n1,"43.2 µM [falling, single point]"
8,O=C(CC1CCCCC1)N1CCC(Cc2nc(-c3ccccc3)no2)CC1,"21.7 µM [falling, partial curve]"
9,COc1ccc(CCNC(=O)CC(c2cccc(F)c2)c2cn(C)c3ccccc23)cc1OC (stereo unspecified),"21.7 µM [falling, partial curve]"
10,COc1ccc(-c2noc(CC3CCN(C(=O)c4ccc(OC)c(OC)c4)CC3)n2)cc1,"7.69 µM [falling, partial curve]"
11,Cc1noc(-c2ccc(OC3CN(C(=O)NCc4ccc(F)cc4)C3)cc2)n1,"21.7 µM [falling, partial curve, poor fit]"
12,O=C(c1cc(F)ccc1F)N1CCC(Cc2nc(-c3ccccc3)no2)CC1,"12.2 µM [falling, partial curve]"
13,CCOc1ccccc1C(=O)N1CCc2[nH]nc(C(=O)NCCCc3ccccc3)c2C1,"30.6 µM [falling, single point]"
14,OCC1(CCOc2ccccc2)CCCN(c2ncnc3sccc23)C1 (stereo unspecified),"5.44 µM [falling, full curve]"
15,COc1ccccc1CC(=O)N1CCN(C(=O)c2nnn3c2COC(c2ccc(C)cc2)C3)CC1 (stereo unspecified),"19.3 µM [falling, partial curve]"
16,CC(=O)N1CCC(Cc2ccc(C(=O)NC3CCN(Cc4ccccc4)CC3)cc2)CC1,"21.7 µM [falling, partial curve]"
17,Cc1cc(C(=O)NC(C)c2cnc(N3CCCCCCC3)nc2C)n[nH]1 (stereo unspecified),"30.6 µM [falling, single point]"
18,OC1(Cc2cc(-c3ccccc3)no2)CCN(c2ncncn2)CC1,"17.2 µM [falling, partial curve]"
19,Cc1ccc2c(c1)nc1n2[C@@H](CNS(=O)(=O)c2ccccc2)COC1,"35.3 µM [falling, partial curve]"
20,CCOc1ccccc1C(=O)N1CCC(n2cc(-c3nc(-c4ccccc4)no3)nn2)CC1,"24.3 µM [falling, partial curve]"
21,O=C(NC1CCCCCCC1)c1nnn2c1COC(c1ccc(F)cc1)C2 (stereo unspecified),"24.3 µM [falling, partial curve, poor fit]"

row,Compound,CC50
1,Cc1ccc(SCCN(C)c2cc(C3CC(O)C3)nc(N)n2)cc1 (stereo unspecified),"30.6 µM [falling, single point]"
2,C[S+](=O)([O-])CCn1ncc2cc(OCC3CCN(C(=O)OC4CCCC4)CC3)ccc21,"15.3 µM [falling, partial curve]"
3,COCCN1C(=O)CO[C@H]2CN(CCCc3ccccc3)C[C@H]21,"22.2 µM [falling, partial curve]"
4,COc1ccccc1CC(=O)N1CCC(Cc2nc(-c3ccc(F)cc3)no2)CC1,"3.43 µM [falling, full curve]"
5,COc1ccc(CN2CCc3nc(C(=O)Nc4ccc(Cl)cc4)oc3CC2)cc1OC,"17.2 µM [falling, partial curve]"
6,COc1ccc(-n2nc(C)c([C@@H]3C=C[C@@H](NS(=O)(=O)c4cccs4)C3)c2C)cc1,"31.4 µM [falling, partial curve]"
7,Cc1nn2c(c1-c1ccccc1Oc1ccccc1)N(Cc1cccc(O)c1)CCC2,"62.7 µM [falling, single point]"
8,O=C(c1cccc2[nH]ccc12)N1CCC2(CC1)N=C(c1ccc(Cl)cc1)NO2,"21.7 µM [falling, partial curve]"
9,O=C(c1ccc(F)cc1Cl)N1CCC(Cc2nc(-c3ccccc3)no2)CC1,"6.11 µM [falling, full curve]"
10,O=C(Nc1ccc(Oc2ccccc2)cc1)O[C@@H]1CO[C@H]2[C@@H]1OC[C@@H]2NC(=S)Nc1ccccc1,"15.3 µM [falling, partial curve]"
11,COc1ccc(C(=O)N2CCC(Cc3nc(-c4ccc(F)cc4)no3)CC2)c(OC)n1,"5.44 µM [falling, full curve]"
12,OC1CC(c2cc(NCCOCc3ccc(Cl)cc3)ncn2)C1 (stereo unspecified),"19.3 µM [falling, partial curve]"
13,O=C(C1CCC1)N1CCC(n2cc(-c3nc(-c4ccccc4)no3)nn2)CC1,"24.3 µM [falling, partial curve]"
14,O=C1N(C2CCCCC2)C[C@H]2CN(Cc3ccc(C(F)(F)F)cc3)CCN12,"15.7 µM [falling, partial curve]"
15,Clc1cccc(CN2CC[C@H](c3nc4ccccc4[nH]3)C2)c1,"35.3 µM [falling, partial curve]"
16,CCN(CC)C(=O)N1CC(Oc2ccc(-c3noc(COC)n3)cc2)C1,"13.7 µM [falling, partial curve]"
17,Cn1nccc1CN1CCn2c(nn(-c3ccc(C(F)(F)F)cc3)c2=O)C1,"30.6 µM [falling, single point]"
18,Cc1cccc(N2CCN(C(=O)CC3CCCCN(Cc4ccccc4)C3=O)CC2)c1 (stereo unspecified),"21.7 µM [falling, partial curve]"
19,O=C(CN1C(=O)NC(c2ccc(Cl)cc2)C2=C1COC2=O)Nc1ccc(Br)cc1F (stereo unspecified),"27.3 µM [falling, single point]"
